Assay results taken from the supplement of paper PMC10369915.
Some of the results follow. Cut-off read from the data, not from the text of the source: active = 3.2 or more and inactive = the rest. Most of these values are background signal.

Key:
Assay in all cases: enrichment score (SH2-bound / input frequency) (ratio); bacterial display of known human phosphotyrosine sites (pTyr-Var adds point mutants) read by sequencing; higher = stronger binding; tyrosines were phosphorylated by kinases first
Settings in all cases: peptide library: pTyr-Var
[1] = target: SHP2 C-SH2 domain E139D
[2] = target: SHP2 C-SH2 domain wild-type
[3] = target: SHP2 N-SH2 domain L43F
[4] = target: SHP2 N-SH2 domain T42A
[5] = target: SHP2 N-SH2 domain T52S
[6] = target: SHP2 N-SH2 domain wild-type
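Note: displayed peptides selected on beads carrying the immobilized SH2 domain, with library peptides lacking any tyrosine serving as negative controls.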

Binder | enrichment score [1] | enrichment score [2] | enrichment score [3] | enrichment score [4] | enrichment score [5] | enrichment score [6]
DFGSGYPNDPK [RNASEH2A_Y210_YF] | inactive: 0.602 | inactive: 0.611 | inactive: 0.454 | inactive: 0.571 | inactive: 0.573 | inactive: 0.623
SPFMLYQFLKQ [RPAP3_Y567_D564Y_YF] | inactive: 2.65 | inactive: 2.56 | inactive: 2.41 | inactive: 2.7 | inactive: 2.55 | inactive: 2.33
YAADYYKLLGN [ROR2_Y646] | inactive: 0.862 | inactive: 0.751 | inactive: 0.767 | inactive: 0.623 | inactive: 0.483 | inactive: 0.947
RKVLVYDKLNV [ROR2_Y624_N620K] | inactive: 0.533 | inactive: 1.06 | inactive: 0.654 | inactive: 0.49 | inactive: 0.786 | inactive: 1.01
FLNSIYQSRDE [ROS1_Y2227_K2228Q] | inactive: 1.31 | inactive: 0.959 | inactive: 0.838 | inactive: 0.789 | inactive: 0.995 | inactive: 1.01
PGRRFYVVACD [RNASE3_Y134] | inactive: 0.66 | inactive: 0.471 | inactive: 0.705 | inactive: 0.747 | inactive: 0.498 | inactive: 0.637
LGSWTYPKTVS [ROS1_Y144_T145P] | inactive: 0.819 | inactive: 0.811 | inactive: 0.792 | inactive: 0.714 | inactive: 0.944 | inactive: 0.754
FGSSSYRGAGG [RPA2_Y14_G15R_YF] | inactive: 0.629 | inactive: 0.602 | inactive: 0.538 | inactive: 0.526 | inactive: 0.571 | inactive: 0.618
EYGSGYPNDPK [RNASEH2A_Y210_D205E] | inactive: 0.49 | inactive: 0.433 | inactive: 0.51 | inactive: 0.378 | inactive: 0.458 | inactive: 0.56
FGSSSYGGAGG [RPA2_Y14_YF] | inactive: 0.889 | inactive: 0.608 | inactive: 0.768 | inactive: 0.706 | inactive: 0.603 | inactive: 0.596
GLTSTYVGIRK [ROBO1_Y932_A933V] | inactive: 0.989 | inactive: 2.69 | inactive: 0.686 | inactive: 0.594 | inactive: 0.616 | inactive: 0.829
VYAADYYKLLG [ROR2_Y645] | inactive: 0.793 | inactive: 0.758 | inactive: 0.918 | inactive: 0.707 | inactive: 0.88 | inactive: 0.857
LEITWYPFDME [RIPOR2_Y316_V320M] | inactive: 1.13 | inactive: 1.16 | inactive: 1.62 | inactive: 1.52 | inactive: 1.19 | inactive: 1.66
EKAEVYRSENE [RIOK2_Y348_G349R] | inactive: 0.678 | inactive: 0.522 | inactive: 0.583 | inactive: 0.456 | inactive: 0.511 | inactive: 0.633
AGQEDYDRLRS [RHOA_Y66_P71S] | inactive: 0.427 | inactive: 0.573 | inactive: 0.554 | inactive: 0.524 | inactive: 0.568 | inactive: 0.695
KWHREYNFKYV [RICTOR_Y835_S837F] | inactive: 2.31 | inactive: 2.24 | inactive: 1.94 | inactive: 1.94 | inactive: 1.86 | inactive: 1.95
YGSSSYGGAGG [RPA2_Y14] | inactive: 0.618 | inactive: 0.609 | inactive: 0.672 | inactive: 0.385 | inactive: 0.535 | inactive: 0.718
KSAAIYNPVIF [RHO_Y301_YF] | inactive: 1.13 | inactive: 0.861 | inactive: 0.994 | inactive: 2.22 | inactive: 0.952 | inactive: 0.817
FGSSSSGGAGG [RPA2_Y14_Y14S_YF] | inactive: 0.472 | inactive: 0.529 | inactive: 0.74 | inactive: 0.46 | inactive: 0.554 | inactive: 0.469

Binder | enrichment score [1] | enrichment score [2] | enrichment score [3] | enrichment score [4] | enrichment score [5] | enrichment score [6]
FKEQGYHRLPP [RIN1_Y681_YF] | inactive: 0.86 | inactive: 0.758 | inactive: 1.08 | inactive: 0.789 | inactive: 0.668 | inactive: 0.629
SGFESYGSSSF [RPA2_Y9_YF] | inactive: 0.506 | inactive: 0.423 | inactive: 0.528 | inactive: 0.366 | inactive: 0.395 | inactive: 0.617
KLLLKYSFHDA [RNF213_Y4141_V4146A] | inactive: 2.13 | inactive: 2.11 | inactive: 2.2 | inactive: 1.84 | inactive: 2.02 | inactive: 2.34
VFAADYFKLLG [ROR2_Y645_YF] | inactive: 1.48 | inactive: 1.24 | inactive: 1.76 | inactive: 1.37 | inactive: 1.2 | inactive: 0.97
FGVVGYLAIVF [RNF175_Y155_M159V] | active: 3.28 | active: 4.83 | active: 4.09 | active: 3.75 | active: 3.75 | active: 4.86
YAANYYKLLGN [ROR2_Y646_D644N] | inactive: 0.775 | inactive: 0.721 | inactive: 0.615 | inactive: 0.563 | inactive: 0.644 | inactive: 0.82
FAANFYKLLGN [ROR2_Y646_D644N_YF] | inactive: 0.584 | inactive: 0.532 | inactive: 0.529 | inactive: 0.511 | inactive: 0.38 | inactive: 0.72
DSDTDYGSGYP [RNASEH2A_Y206_L202S] | inactive: 0.487 | inactive: 0.454 | inactive: 0.356 | inactive: 0.315 | inactive: 0.398 | inactive: 0.381
VFAANYFKLLG [ROR2_Y645_D644N_YF] | inactive: 2.73 | inactive: 2.29 | inactive: 2.2 | inactive: 2.07 | inactive: 2.48 | inactive: 2.07
FKEQGYHRLPS [RIN1_Y681_P686S_YF] | inactive: 0.965 | inactive: 0.843 | inactive: 0.309 | inactive: 0.807 | inactive: 0.664 | inactive: 1.11
KWHREYNSKYV [RICTOR_Y835] | inactive: 1.89 | inactive: 1.41 | inactive: 1.77 | inactive: 1.66 | inactive: 1.7 | inactive: 1.42
EKQVAYCPSGR [ROS1_Y2323_K2328R] | inactive: 0.886 | inactive: 0.837 | inactive: 0.599 | inactive: 0.61 | inactive: 0.695 | inactive: 0.554
LEAVSYSSRYA [RNLS_Y190] | inactive: 0.873 | inactive: 0.685 | inactive: 0.733 | inactive: 0.58 | inactive: 0.778 | inactive: 0.737
TVFENYVADIK [RHOA_Y42_E47K] | inactive: 1.11 | inactive: 0.841 | inactive: 0.762 | inactive: 0.773 | inactive: 0.774 | inactive: 0.743
QDRDLYPCPGT [RLF_Y671] | inactive: 0.726 | inactive: 0.616 | inactive: 0.551 | inactive: 0.503 | inactive: 0.71 | inactive: 0.695
SHTPSYCDESL [RITA1_Y109] | inactive: 0.637 | inactive: 0.621 | inactive: 0.704 | inactive: 0.576 | inactive: 0.69 | inactive: 0.866
DLDTDYGSGFP [RNASEH2A_Y206_YF] | inactive: 0.661 | inactive: 0.578 | inactive: 0.688 | inactive: 0.501 | inactive: 0.677 | inactive: 0.735
VPVNGYQPVTA [ROR2_Y824_P828T] | inactive: 0.606 | inactive: 0.601 | inactive: 0.556 | inactive: 0.534 | inactive: 0.699 | inactive: 0.746
